# Assay results from the supplement of paper PMC8728848.
# This is one part of the list.
# How the values were obtained:
# Assay in all cases: glycan array binding signal (z-score within array); higher = stronger binding
# Conditions in all cases: glycan notation: IUPAC condensed, linker removed
# [1] = target: Gal(a1-3)[Gal(a1-4)]Gal(b1-4)GlcNAc
# How it was run: (§1)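 The binding signal is a Z-score computed within each array. Data were drawn from 3228 arrays in the Consortium for Functional Glycomics database, restricted to those with a known protein sequence. Scores were averaged over arrays of the same protein sequence at different concentrations or buffers, and over linkers, and negative values can be taken as non-binding.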
# [2] = target: Gal(a1-4)Gal(b1-3)GlcNAc(b1-2)Man(a1-3)[Gal(a1-4)Gal(b1-3)GlcNAc(b1-2)Man(a1-6)]Man(b1-4)GlcNAc(b1-4)GlcNAc
# How it was run: as §1
# Gal(a1-4)Gal(b1-4)Glc = target: Gal(a1-4)Gal(b1-4)Glc
# How it was run: as §1
# Gal(a1-4)Gal(b1-4)GlcNAc = target: Gal(a1-4)Gal(b1-4)GlcNAc
# How it was run: as §1
# [3] = target: Gal(a1-4)Gal(b1-4)GlcNAc(b1-2)Man(a1-3)[Gal(a1-4)Gal(b1-4)GlcNAc(b1-2)Man(a1-6)]Man(b1-4)GlcNAc(b1-4)GlcNAc
# How it was run: as §1
# [4] = target: Gal(a1-4)Gal(b1-4)GlcNAc(b1-3)Gal(b1-4)Glc
# How it was run: as §1
# Gal(a1-4)GlcNAc = target: Gal(a1-4)GlcNAc
# How it was run: as §1
# Gal(a1-6)Glc = target: Gal(a1-6)Glc
# How it was run: as §1
# Gal(b1-2)Gal = target: Gal(b1-2)Gal
# How it was run: as §1
# Gal(b1-3)Gal = target: Gal(b1-3)Gal
# How it was run: as §1
# Gal(b1-3)Gal(b1-4)GlcNAc = target: Gal(b1-3)Gal(b1-4)GlcNAc
# How it was run: as §1
# Gal(b1-3)GalNAc = target: Gal(b1-3)GalNAc
# How it was run: as §1
# [5] = target: Gal(b1-3)GalNAc(a1-3)[Fuc(a1-2)]Gal(b1-4)Glc
# How it was run: as §1
# [6] = target: Gal(b1-3)GalNAc(a1-3)[Fuc(a1-2)]Gal(b1-4)GlcNAc
# How it was run: as §1
# Gal(b1-3)GalNAc(b1-3)Gal = target: Gal(b1-3)GalNAc(b1-3)Gal
# How it was run: as §1
# [7] = target: Gal(b1-3)GalNAc(b1-3)Gal(a1-4)Gal(b1-4)Glc
# How it was run: as §1
# [8] = target: Gal(b1-3)GalNAc(b1-4)Gal(b1-4)Glc
# How it was run: as §1
# [9] = target: Gal(b1-3)GalNAc(b1-4)[Neu5Ac(a2-3)]Gal(b1-4)Glc
# How it was run: as §1
# Gal(b1-3)GlcNAc = target: Gal(b1-3)GlcNAc
# How it was run: as §1
# [10] = target: Gal(b1-3)GlcNAc(a1-3)Gal(b1-4)GlcNAc
# How it was run: as §1
# [11] = target: Gal(b1-3)GlcNAc(a1-6)Gal(b1-4)GlcNAc
# How it was run: as §1
# Gal(b1-3)GlcNAc(b1-2)Man = target: Gal(b1-3)GlcNAc(b1-2)Man
# How it was run: as §1
# [12] = target: Gal(b1-3)GlcNAc(b1-2)Man(a1-3)[Gal(b1-3)GlcNAc(b1-2)Man(a1-6)]Man(b1-4)GlcNAc(b1-4)GlcNAc
# How it was run: as §1
# [13] = target: Gal(b1-3)GlcNAc(b1-2)Man(a1-3)[Gal(b1-3)GlcNAc(b1-2)Man(a1-6)]Man(b1-4)GlcNAc(b1-4)[Fuc(a1-6)]GlcNAc
# How it was run: as §1
# [14] = target: Gal(b1-3)GlcNAc(b1-2)Man(a1-3)[GlcNAc(b1-4)][Gal(b1-3)GlcNAc(b1-2)Man(a1-6)]Man(b1-4)GlcNAc(b1-4)GlcNAc
# How it was run: as §1
# [15] = target: Gal(b1-3)GlcNAc(b1-2)[Gal(b1-3)GlcNAc(b1-6)]Man(a1-6)[Gal(b1-3)GlcNAc(b1-2)Man(a1-3)]Man(b1-4)GlcNAc(b1-4)GlcNAc
# How it was run: as §1
# [16] = target: Gal(b1-3)GlcNAc(b1-3)Gal(b1-3)GlcNAc
# How it was run: as §1
# [17] = target: Gal(b1-3)GlcNAc(b1-3)Gal(b1-4)Glc
# How it was run: as §1
# [18] = target: Gal(b1-3)GlcNAc(b1-3)Gal(b1-4)GlcNAc
# How it was run: as §1
# [19] = target: Gal(b1-3)GlcNAc(b1-3)Gal(b1-4)GlcNAc(b1-2)Man(a1-3)[Gal(b1-3)GlcNAc(b1-3)Gal(b1-4)GlcNAc(b1-2)Man(a1-6)]Man(b1-4)GlcNAc(b1-4)GlcNAc
# How it was run: as §1
# [20] = target: Gal(b1-3)GlcNAc(b1-3)Gal(b1-4)GlcNAc(b1-2)[Gal(b1-3)GlcNAc(b1-3)Gal(b1-4)GlcNAc(b1-6)]Man(a1-6)[Gal(b1-3)GlcNAc(b1-3)Gal(b1-4)GlcNAc(b1-2)Man(a1-3)]Man(b1-4)GlcNAc(b1-4)[Fuc(a1-6)]GlcNAc
# How it was run: as §1
# [21] = target: Gal(b1-3)GlcNAc(b1-3)Gal(b1-4)GlcNAc(b1-3)Gal(b1-4)GlcNAc(b1-2)[Gal(b1-3)GlcNAc(b1-3)Gal(b1-4)GlcNAc(b1-3)Gal(b1-4)GlcNAc(b1-6)]Man(a1-6)[Gal(b1-3)GlcNAc(b1-3)Gal(b1-4)GlcNAc(b1-3)Gal(b1-4)GlcNAc(b1-2)Man(a1-3)]Man(b1-4)GlcNAc(b1-4)[Fuc(a1-6)]GlcNAc
# How it was run: as §1
# [22] = target: Gal(b1-3)GlcNAc(b1-3)Gal(b1-4)GlcNAc(b1-6)[Gal(b1-3)GlcNAc(b1-3)]Gal(b1-4)Glc
# How it was run: as §1
# [23] = target: Gal(b1-3)GlcNAc(b1-3)Gal(b1-4)[Fuc(a1-3)]GlcNAc
# How it was run: as §1
# [24] = target: Gal(b1-3)GlcNAc(b1-3)Gal(b1-4)[Fuc(a1-3)]GlcNAc(b1-6)[Gal(b1-3)GlcNAc(b1-3)]Gal(b1-4)Glc
# How it was run: as §1
# [25] = target: Gal(b1-3)GlcNAc(b1-3)GalNAc
# How it was run: as §1
# [26] = target: Gal(b1-3)GlcNAc(b1-6)Gal(b1-4)GlcNAc
# How it was run: as §1
# [27] = target: Gal(b1-3)GlcNAc(b1-6)GalNAc
# How it was run: as §1
binder,measurement,setting,value
PX14375l-pdi-526-25-526 (Parabacteroides distasonis) (protein) DEEPKSTLTDVAYYKTQSQMESNVNYLYRTGAIGSYVDFGSAYIGPFASIQEELTGYFSNSYEGQEIVCRYTRELTRQQNTMQLASKMDKVWDDCYRGINVANGAIKHMPEVPMDQATADRLTAEAKFFRAFNYFYLVKTFGAVPFYTDPYELAENMELPRTETSTIYNQIESDLKDAMNVLPEATFAANGHRITKYVAAMTLTDVYMYQHKYAEAAETVRIVVNSNHKLTTNDDLAMNSAFNKLRSTDDLDEAIYAYEYDNQISPSNWLPTYAFDGDASSNGLFGTYAITQKVHGPNDRYLNIYESNDLRRQPNQFYHWTYTNPKTGKVWNSVGNAACCWYYYDEDALLTTGRGTKDWNVYRYAEALLDAAESIAQSTGVTAEAAGYLAQVKARANMEGKTAAEIASSLQSMGKQAFIEECWTERLRELPLEFKMWDMCVRTGMFPNISETTPGQVTYIPLVGAKNASGATIKESDLLWPLSVNEIQRNPSLTQNEGYSAK,glycan array binding signal (z-score),[1],0.562
same,glycan array binding signal (z-score),[2],0.198
same,glycan array binding signal (z-score),Gal(a1-4)Gal(b1-4)Glc,-0.305
same,glycan array binding signal (z-score),Gal(a1-4)Gal(b1-4)GlcNAc,-0.194
same,glycan array binding signal (z-score),[3],1.19
same,glycan array binding signal (z-score),[4],-0.084
same,glycan array binding signal (z-score),Gal(a1-4)GlcNAc,-0.175
same,glycan array binding signal (z-score),Gal(a1-6)Glc,-0.362
same,glycan array binding signal (z-score),Gal(b1-2)Gal,-0.209
same,glycan array binding signal (z-score),Gal(b1-3)Gal,0.137
same,glycan array binding signal (z-score),Gal(b1-3)Gal(b1-4)GlcNAc,-0.206
same,glycan array binding signal (z-score),Gal(b1-3)GalNAc,-0.27
same,glycan array binding signal (z-score),[5],-0.233
same,glycan array binding signal (z-score),[6],-0.31
same,glycan array binding signal (z-score),Gal(b1-3)GalNAc(b1-3)Gal,-0.407
same,glycan array binding signal (z-score),[7],0.106
same,glycan array binding signal (z-score),[8],0.003
same,glycan array binding signal (z-score),[9],-0.143
same,glycan array binding signal (z-score),Gal(b1-3)GlcNAc,-0.319
same,glycan array binding signal (z-score),[10],-0.152
same,glycan array binding signal (z-score),[11],-0.286
same,glycan array binding signal (z-score),Gal(b1-3)GlcNAc(b1-2)Man,-0.206
same,glycan array binding signal (z-score),[12],0.136
same,glycan array binding signal (z-score),[13],-0.259
same,glycan array binding signal (z-score),[14],0.085
same,glycan array binding signal (z-score),[15],0.464
same,glycan array binding signal (z-score),[16],-0.192
same,glycan array binding signal (z-score),[17],0.08
same,glycan array binding signal (z-score),[18],-0.31
same,glycan array binding signal (z-score),[19],0.22
same,glycan array binding signal (z-score),[20],1.79
same,glycan array binding signal (z-score),[21],8.4
same,glycan array binding signal (z-score),[22],-0.181
same,glycan array binding signal (z-score),[23],-0.212
same,glycan array binding signal (z-score),[24],-0.125
same,glycan array binding signal (z-score),[25],-0.323
same,glycan array binding signal (z-score),[26],0.048
same,glycan array binding signal (z-score),[27],-0.012
